# Test results as given in PubChem BioAssay AID1345082 (National Center for Advancing Translational Sciences (NCATS), 2018).
# The whole screen tested about 94,000 compounds, of which about 4,000 (4.3%) were called active. Inconclusive means that the source gave no clear call. Such entries were picked first, then a sample of the others. Calls follow the shape of the dose curve; as a rule, active = well fitted inhibition curve with a large enough effect; inconclusive = small, poorly fitted or top-dose-only effect; inactive = no such curve, though single readings can be large or run the other way. Potencies beside an inconclusive call are fits to weak or partial responses and may not hold up.
# Assay: Cytotoxic Profiling in NIH 3T3 Cell Line of Diverse Libraries Using Quantitative High-Throughput Screening; also: nearly all actives have a fitted effect of over 55% in size
# Details: NIH 3T3 viability, CellTiter-Glo ATP luminescence, 48-72 h; activity change, negative = cytotoxicity: at 96.7 µM (top of the series) unless noted; series mostly up to 96.7 µM
# Procedure, shortened: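 ATP-dependent luminescence (CellTiter-Glo) served as the viability signal for NIH 3T3 cells treated with compound for 48 or 72 hr at 37 °C.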
# % is scaled to controls: 0 for no effect and ±100 for the full control effect; potency is read from the fitted curve at half-maximal effect; tags tell the direction and shape of the fitted curve.
Compound,Potency,"activity change, negative = cytotoxicity",outcome
O=C(NC1CCN(c2cc(-c3ccc(F)cc3)[nH]n2)C1)c1ccc(Br)o1 (centres undefined),"inconclusive: 39.8 µM [inhibitor, partial curve, poor fit]",–,–
Cc1cc(Cl)ccc1NC(=O)N1C[C@H](c2nc(-c3cccnc3)no2)[C@@H](C)C1,–,inactive: -24.7%,–
Fc1ccc(Cc2nc(-c3nnn4c3COC(c3ccc(Cl)cc3)C4)no2)cc1 (centres undefined),"inconclusive: 44.7 µM [inhibitor, partial curve, poor fit]",–,–
COc1ccc(-c2cc(C(=O)NCc3ccccc3)c3cnn(C)c3n2)cc1,"inconclusive: 31.6 µM [inhibitor, full curve, poor fit]",–,–
Cc1ccccc1-c1cc(O)c2c(c1)CN(Cc1ccoc1)CCO2,"inconclusive: 50.1 µM [inhibitor, partial curve, poor fit]",–,–
COCC(=O)NC1CCN(c2nccc(Nc3ccc(OC)cc3)n2)CC1,"inconclusive: 50.1 µM [inhibitor, partial curve, poor fit]",–,–
CC(C)c1ccc(OCC(=O)c2ccc3c(c2)N(CCCC(=O)NCC2CC2)C(=O)CO3)cc1,–,inactive: -13%,–
C=CCOc1c(OC)ccc2c1CN(CC=C)C(=O)CCN2C[C@@H](O)COCc1ccccc1,"inconclusive: 70.8 µM [inhibitor, single point]",–,–
Cc1cnc(CC2CCCN(C(=O)COc3ccccc3)C2)n1Cc1ccc(F)cc1 (centres undefined),"inconclusive: 50.1 µM [inhibitor, partial curve, poor fit]",–,–
O=C(c1ccccc1Cl)N1CCc2nc(C3CC3)nc(-c3ccc(O)cc3)c2C1,"inconclusive: 44.7 µM [inhibitor, partial curve, poor fit]",–,–
CN1CCN(C(=O)C2CCc3nnc(C4CC4)n32)CC1 (centres undefined),–,–,inactive
COc1ccc(C(=O)C2CCCN(Cc3csc(C(C)=O)c3)C2)c(OC)c1 (centres undefined),"inconclusive: 44.7 µM [inhibitor, partial curve]",–,–
CC(C)c1nc2c(c(-c3ccc(O)cc3)n1)CN([S+](=O)([O-])c1cccc(C(F)(F)F)c1)CC2,active: 17.8 µM,–,–
COC(=O)c1cc2n(n1)CCCN(C(=O)c1cc(CC(C)C)no1)C2,"inconclusive: 89.1 µM [inhibitor, partial curve, poor fit]",–,–
Cc1ccc2c(C(=O)NCc3ccccc3C(F)(F)F)cc(NC(=O)C(C)C)cc2n1,"inconclusive: 70.8 µM [inhibitor, single point]",–,–
Oc1cccc(CN(Cc2ccsc2)Cc2ccco2)c1,active: 31.6 µM,–,–
CC(=O)Nc1ccccc1-c1c(C)nn2c1N(C(=O)c1ccc(Oc3ccccc3)cc1)CCC2,"inconclusive: 44.7 µM [inhibitor, partial curve, poor fit]",–,–
O=C(c1ccccc1)N1CCCC2(CN[S+](=O)([O-])c3cccnc3N2)C1 (centres undefined),–,inactive: 4.27%,–
COc1ccccc1OCC(=O)c1ccc2c(c1)N(CC(=O)N(C)Cc1ccccc1)C(=O)CO2,"inconclusive: 70.8 µM [inhibitor, single point]",–,–
Cc1noc(C)c1[S+](=O)([O-])N1CCCC(C(=O)N2CCC(c3ccccc3)CC2)C1 (centres undefined),"inconclusive: 44.7 µM [inhibitor, partial curve, poor fit]",–,–
Cc1nc2cnccn2c1C(=O)NCc1ccccc1Cl,"inconclusive: 56.2 µM [inhibitor, partial curve, poor fit]",–,–
CC(C)CCN1CCCC2(C1)NC(=O)c1ccccc1O2 (centres undefined),–,inactive: -19.4% [at 138 µM],–

Compound,Potency,"activity change, negative = cytotoxicity",outcome
Cc1nn(-c2ccccc2Cl)c(=O)n1CC(=O)N(C)C(C)c1ccon1 (centres undefined),–,inactive: -10.6%,–
O=C(Cc1ccc(F)cc1)NC1CCN(c2nc3ncccc3o2)C1 (centres undefined),–,inactive: -8.47% [at 138 µM],–
Cc1cc(C(=O)N[C@H](c2ccccn2)C2CC(O)C2)c2c(C)noc2n1 (some centres undefined),–,inactive: -11%,–
NCCc1ccc(CN2C[C@@H]3CC[C@H](C2)N(Cc2ccccc2)C3)cc1,"inconclusive: 56.2 µM [inhibitor, partial curve, poor fit]",–,–
COc1ccc(Cl)cc1-c1ccc2c(n1)CN(CCOc1ccccc1)C(=O)CO2,"inconclusive: 89.1 µM [inhibitor, partial curve, poor fit]",–,–
Cc1ccc(C)c(S(=O)(=O)c2nnn3c2nc(N2CCOCC2)c2ccccc23)c1,"inconclusive: 14.1 µM [inhibitor, full curve, poor fit]",–,–
Cc1oc2c(c1C(=O)NCCN1CCOCC1)CN(Cc1cccc(F)c1)CC2,–,inactive: -5.7%,–
COc1ccc(CNC(=O)c2nnn3c2CN(Cc2cccc(Cl)c2)C(=O)CC3)cc1OC,"inconclusive: 28.2 µM [inhibitor, partial curve, poor fit]",–,–
O=S(=O)(Cc1ccccc1)NC[C@H]1Cn2c(-c3ccc(Cl)cc3)cnc2CO1,"inconclusive: 44.7 µM [inhibitor, partial curve, poor fit]",–,–
COc1nc2nc(CCc3ccccc3)n(C)c2cc1-c1ccc(CO)cc1,"inconclusive: 100 µM [inhibitor, single point]",–,–
Cc1ccc(NC(=O)c2ccc3c(c2)N(C)C2CCCCCN2C3=O)cc1C (centres undefined),"inconclusive: 70.8 µM [inhibitor, partial curve, poor fit]",–,–
CCS(=O)(=O)Nc1ccc(C2(C(=O)NCc3cccc(Cl)c3)CCC2)cc1,"inconclusive: 39.8 µM [inhibitor, partial curve]",–,–
COCCNC(=O)c1cn2cc(-c3cccc(Cl)c3)n(CC=C(C)C)c(=O)c2n1,"inconclusive: 35.5 µM [inhibitor, partial curve, poor fit]",–,–
COc1ccc(-c2ccnc3nc(C(C)C)nn23)cc1OC,"inconclusive: 50.1 µM [inhibitor, partial curve, poor fit]",–,–
COc1ccc(-c2cc(N3CCN(C(=O)c4ccc(C)cc4C)CC3)n[nH]2)cc1,"inconclusive: 28.2 µM [inhibitor, partial curve, poor fit]",–,–
O=C(NCCc1ccccn1)c1ccc2c(c1)OCCN(c1ccccc1)C2,–,inactive: -16.9% [at 138 µM],–
c1ccc(CN2CC[C@H](c3nnc(-c4ccco4)o3)C2)nc1,–,inactive: 0.44% [at 174 µM],–
COc1cccc(OCc2cc(C(=O)N3CCCCC3c3cccnc3)n[nH]2)c1 (centres undefined),"inconclusive: 35.5 µM [inhibitor, partial curve, poor fit]",–,–
COc1ccc(C(=O)N2CCCn3nc(C)c(-c4ccccc4-c4ccccc4)c32)cn1,"inconclusive: 100 µM [inhibitor, single point]",–,–
COCCn1c(C)cc(C(=O)N2C[C@@H](CO)[C@H](c3ccccn3)C2)c1C,–,inactive: -10.6%,–
Cc1ccc([C@H]2C[C@@H](O)[C@@H](O)[C@@H]2NC(=O)C2CCOCC2)cc1,–,–,inactive [at 174 µM]
CC(C)Cn1c(=O)c(C(=O)N2CCN(C(=O)C3CCCC3)CC2)nc2cccnc21,–,inactive: -4.88%,–

Compound,Potency,"activity change, negative = cytotoxicity",outcome
CCC(C)N1Cc2cc(NC(=O)c3ccc([N+](=O)[O-])cc3)ccc2OCC1=O (centres undefined),"inconclusive: 44.7 µM [inhibitor, partial curve, poor fit]",–,–
Cc1[nH]ncc1CNC(=O)CCC[C@@H]1[C@H]2CCCN3CCC[C@@H](CN1Cc1cccnc1)[C@@H]23,–,–,inactive
O=C1CCN(S(=O)(=O)c2ccccc2)CCCC(C(=O)NCc2ccc(F)cc2)CCN1 (centres undefined),–,–,inactive
Cc1noc(C)c1[S+](=O)([O-])N1CCCC(C(=O)N2CCC(c3nc4ccncc4[nH]3)CC2)C1 (centres undefined),–,inactive: -23.8%,–
O=C(c1c[nH]c2ccccc12)N1CCC2(CC1)CN(c1ccncn1)CC2CO (centres undefined),–,inactive: -9.3%,–
CC1(c2ccccc2)N(Cc2ccccc2)C(=O)OC12CCN(C(=O)c1cccc(O)c1)CC2 (centres undefined),"inconclusive: 39.8 µM [inhibitor, partial curve, poor fit]",–,–
O=C(Nc1cccc(C(F)(F)F)c1)O[C@@H]1CO[C@H]2[C@@H]1OC[C@@H]2NS(=O)(=O)c1cccc2cccnc12,"inconclusive: 89.1 µM [inhibitor, partial curve, poor fit]",–,–
C#CCNC(=O)c1cc(-c2cccc(C(F)(F)F)c2)nc2c1cnn2C,active: 10 µM,–,–
CCc1nc2c(c(-c3ccc(Cl)cc3)n1)CN(C(=O)Cc1cccc(Cl)c1)CC2,"inconclusive: 50.1 µM [inhibitor, partial curve, poor fit]",–,–
COc1ccc(OCC(=O)N2CCN(c3cc(-c4ccccc4)[nH]n3)CC2)cc1,"inconclusive: 44.7 µM [inhibitor, partial curve, poor fit]",–,–
Cc1nn(-c2ccc(C(C)C)cc2)c(C)c1[C@@H]1C=C[C@@H](NCc2ccccc2)C1,active: 11.2 µM,–,–
c1cncc(COc2cc3c(cn2)NCCN(CC2CCCCC2)C3)c1,"inconclusive: 56.2 µM [inhibitor, partial curve, poor fit]",–,–
Cc1ccc(-n2c(C3CCN(C(=O)c4cccc(F)c4)CC3)n[nH]c2=O)cc1,active: 35.5 µM,–,–
O=C(NC1CCCCCCC1)C1CCCN(C2CCN(Cc3ccncc3)CC2)C1 (centres undefined),–,inactive: -16%,–
O=C(CNC(=O)c1ccc(-c2cccc(C(F)(F)F)c2)cc1)NC1CCCC1,"inconclusive: 50.1 µM [inhibitor, partial curve, poor fit]",–,–
Cc1nn2c(c1-c1ccccc1Oc1ccccc1)N(Cc1ccc(OCC(=O)O)cc1)CCC2,"inconclusive: 39.8 µM [inhibitor, partial curve]",–,–
CC(C)C[C@@H]1N[C@H](C(=O)NC(C)C)Cc2c[nH]c3cccc1c23,active: 100 µM,–,–
O=C1OC[C@@H]2CCN(C3CCC3)Cc3ccc(F)cc3N12,–,inactive: -11.4% [at 230 µM],–
Cn1cc(-c2cnc(Nc3cccc(C(F)(F)F)c3)c3c2CCO3)cn1,"inconclusive: 56.2 µM [inhibitor, partial curve, poor fit]",–,–
Fc1ccc(CNc2cc3c(cn2)NCCN(Cc2ccccc2)C3)cc1,"inconclusive: 56.2 µM [inhibitor, partial curve, poor fit]",–,–
